± gives the standard error. This sample is rich in variants without activity.

B1: glmS ribozyme (parent)
chain: AUAAAAGCGCCAGAACUACAGAAAUGUAGUUGACGAGGAGGAGGUUUAUCGAAUUUUCGGCGGAUGCCUCCAAA

What all share (settings): with glucosamine-6-phosphate
Variants of B1 are the subject of series [1]. Description: self-cleavage kobs at 640 uM GlcN6P; higher = faster cleavage; RNA array. The essentials:
(§1)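 A hybridised Cy3 probe tracked barcoded ribozyme variants, transcribed in situ by E. coli RNA polymerase on sequenced MiSeq chips, at 37 °C. The variants received 40 μM to 10 mM glucosamine-6-phosphate in HEPES/KCl/Mg(OAc)2 buffer. kobs came from decay fits and kcat and KM from weighted Michaelis–Menten fits.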

In series [2] the parent is B1. Description: self-cleavage kobs at 2500 uM GlcN6P; higher = faster cleavage; RNA array. The essentials:
as §1

The variants in series [3] derive from B1. The series is described as follows: self-cleavage kobs at 160 uM GlcN6P; higher = faster cleavage; RNA array. The essentials:
as §1

Series [4] covers variants of B1. The series is described as follows: self-cleavage kobs at 10000 uM GlcN6P; higher = faster cleavage; RNA array. The essentials: as §1
In series [5] the parent is B1. The series is described as follows: self-cleavage kobs at 40 uM GlcN6P; higher = faster cleavage; RNA array. The essentials: as §1

For A6C C16U G38U U47C G63A, in the series with glucosamine-6-phosphate [1], the “self-cleavage kobs at 640 uM GlcN6P” value was below 1e-05 s⁻¹. Also, the “self-cleavage kobs at 2500 uM GlcN6P” value in the series with glucosamine-6-phosphate [2] was below 1e-05 s⁻¹.

Take G7A G59U: the “self-cleavage kobs at 640 uM GlcN6P” value in the series with glucosamine-6-phosphate [1] was below 1e-05 s⁻¹. Also, the “self-cleavage kobs at 160 uM GlcN6P” value in the series with glucosamine-6-phosphate [3] was below 1e-05 s⁻¹. The “self-cleavage kobs at 10000 uM GlcN6P” value in the series with glucosamine-6-phosphate [4] was below 1e-05 s⁻¹.

As to A6G G7A A36G, the “self-cleavage kobs at 640 uM GlcN6P” value with glucosamine-6-phosphate [1] was below 1e-05 s⁻¹. For the same variant, the “self-cleavage kobs at 2500 uM GlcN6P” value with glucosamine-6-phosphate [2] was below 1e-05 s⁻¹.

With G7U G9C G13A A36G G37U U49C G63U, in the series with glucosamine-6-phosphate [1], the “self-cleavage kobs at 640 uM GlcN6P” value is below 1e-05 s⁻¹. For the same variant, the “self-cleavage kobs at 2500 uM GlcN6P” value with glucosamine-6-phosphate [2] was below 1e-05 s⁻¹.

For A6C G44U U65G, the “self-cleavage kobs at 640 uM GlcN6P” value with glucosamine-6-phosphate [1] was below 1e-05 s⁻¹. The “self-cleavage kobs at 2500 uM GlcN6P” value with glucosamine-6-phosphate [2] was below 1e-05 s⁻¹.

Take C58U G62A: the “self-cleavage kobs at 40 uM GlcN6P” value in the series with glucosamine-6-phosphate [5] was below 1e-05 s⁻¹. In addition, the “self-cleavage kobs at 640 uM GlcN6P” value in the series with glucosamine-6-phosphate [1] was below 1e-05 s⁻¹. The “self-cleavage kobs at 160 uM GlcN6P” value in the series with glucosamine-6-phosphate [3] is below 1e-05 s⁻¹. In addition, in the series with glucosamine-6-phosphate [2], the “self-cleavage kobs at 2500 uM GlcN6P” value was below 1e-05 s⁻¹. In addition, in the series with glucosamine-6-phosphate [4], the “self-cleavage kobs at 10000 uM GlcN6P” value was below 1e-05 s⁻¹.

Consider G7A G29C G63U, for which the “self-cleavage kobs at 640 uM GlcN6P” value in the series with glucosamine-6-phosphate [1] is below 1e-05 s⁻¹.

For the variant A6U C34U C50A, the “self-cleavage kobs at 640 uM GlcN6P” value with glucosamine-6-phosphate [1] is below 1e-05 s⁻¹. Also, the “self-cleavage kobs at 2500 uM GlcN6P” value in the series with glucosamine-6-phosphate [2] was below 1e-05 s⁻¹.

Consider G7A U46A, for which, in the series with glucosamine-6-phosphate [1], the “self-cleavage kobs at 640 uM GlcN6P” value is below 1e-05 s⁻¹. In addition, the “self-cleavage kobs at 160 uM GlcN6P” value in the series with glucosamine-6-phosphate [3] was below 1e-05 s⁻¹.

As for C8G C58U G59C C61U C67G, the “self-cleavage kobs at 640 uM GlcN6P” value with glucosamine-6-phosphate [1] was below 1e-05 s⁻¹. Moreover, the “self-cleavage kobs at 2500 uM GlcN6P” value in the series with glucosamine-6-phosphate [2] was below 1e-05 s⁻¹.

Turning to A6U U47C G60A, in the series with glucosamine-6-phosphate [1], the “self-cleavage kobs at 640 uM GlcN6P” value was below 1e-05 s⁻¹.

For A6G G32C U56G, the “self-cleavage kobs at 640 uM GlcN6P” value with glucosamine-6-phosphate [1] was below 1e-05 s⁻¹. For the same variant, the “self-cleavage kobs at 2500 uM GlcN6P” value in the series with glucosamine-6-phosphate [2] was below 1e-05 s⁻¹.

Regarding G7U C16U C50U, the “self-cleavage kobs at 640 uM GlcN6P” value with glucosamine-6-phosphate [1] was below 1e-05 s⁻¹. For the same variant, in the series with glucosamine-6-phosphate [2], the “self-cleavage kobs at 2500 uM GlcN6P” value was below 1e-05 s⁻¹.

Regarding A6C G38C U49C C68U C70U, in the series with glucosamine-6-phosphate [1], the “self-cleavage kobs at 640 uM GlcN6P” value was below 1e-05 s⁻¹. In addition, the “self-cleavage kobs at 160 uM GlcN6P” value with glucosamine-6-phosphate [3] is below 1e-05 s⁻¹.

On to A6U U30G U31G G32U A64C, for which the “self-cleavage kobs at 640 uM GlcN6P” value with glucosamine-6-phosphate [1] is below 1e-05 s⁻¹. Further, in the series with glucosamine-6-phosphate [3], the “self-cleavage kobs at 160 uM GlcN6P” value is below 1e-05 s⁻¹. For the same variant, the “self-cleavage kobs at 2500 uM GlcN6P” value with glucosamine-6-phosphate [2] is below 1e-05 s⁻¹.

For G7U C16U G35C G41C A42C U45G, the “self-cleavage kobs at 640 uM GlcN6P” value with glucosamine-6-phosphate [1] was below 1e-05 s⁻¹.

On to A6C G44C C70G, for which the “self-cleavage kobs at 640 uM GlcN6P” value in the series with glucosamine-6-phosphate [1] is below 1e-05 s⁻¹.

With G59C G63U, the “self-cleavage kobs at 40 uM GlcN6P” value with glucosamine-6-phosphate [5] is below 1e-05 s⁻¹. Also, in the series with glucosamine-6-phosphate [1], the “self-cleavage kobs at 640 uM GlcN6P” value was below 1e-05 s⁻¹. In the series with glucosamine-6-phosphate [2], the “self-cleavage kobs at 2500 uM GlcN6P” value was below 1e-05 s⁻¹. Also, the “self-cleavage kobs at 10000 uM GlcN6P” value with glucosamine-6-phosphate [4] is below 1e-05 s⁻¹.

Turning to A6C A12G U54G, the “self-cleavage kobs at 640 uM GlcN6P” value with glucosamine-6-phosphate [1] is below 1e-05 s⁻¹. Also, the “self-cleavage kobs at 2500 uM GlcN6P” value in the series with glucosamine-6-phosphate [2] is below 1e-05 s⁻¹.

Take A6G A52U A64G C67U: in the series with glucosamine-6-phosphate [1], the “self-cleavage kobs at 640 uM GlcN6P” value is below 1e-05 s⁻¹. Also, in the series with glucosamine-6-phosphate [2], the “self-cleavage kobs at 2500 uM GlcN6P” value was below 1e-05 s⁻¹.

As for G7A A12U U47A C61A A64C, the “self-cleavage kobs at 640 uM GlcN6P” value with glucosamine-6-phosphate [1] was below 1e-05 s⁻¹. Besides, the “self-cleavage kobs at 160 uM GlcN6P” value in the series with glucosamine-6-phosphate [3] was below 1e-05 s⁻¹. Further, the “self-cleavage kobs at 2500 uM GlcN6P” value with glucosamine-6-phosphate [2] was below 1e-05 s⁻¹.

As for G63C A64G, the “self-cleavage kobs at 40 uM GlcN6P” value with glucosamine-6-phosphate [5] is below 1e-05 s⁻¹. In addition, the “self-cleavage kobs at 160 uM GlcN6P” value with glucosamine-6-phosphate [3] was below 1e-05 s⁻¹. In addition, in the series with glucosamine-6-phosphate [2], the “self-cleavage kobs at 2500 uM GlcN6P” value is below 1e-05 s⁻¹.

Consider G7C C8G A15G U54C, for which, in the series with glucosamine-6-phosphate [1], the “self-cleavage kobs at 640 uM GlcN6P” value was below 1e-05 s⁻¹. Also, the “self-cleavage kobs at 2500 uM GlcN6P” value in the series with glucosamine-6-phosphate [2] is below 1e-05 s⁻¹.

Regarding C71G, the “self-cleavage kobs at 40 uM GlcN6P” value with glucosamine-6-phosphate [5] is 0.000157 ± 1.8e-05 s⁻¹. The “self-cleavage kobs at 640 uM GlcN6P” value with glucosamine-6-phosphate [1] worked out at 0.000926 ± 4.6e-05 s⁻¹. Also, the “self-cleavage kobs at 160 uM GlcN6P” value with glucosamine-6-phosphate [3] was determined as 0.00041 ± 3.6e-05 s⁻¹. The “self-cleavage kobs at 2500 uM GlcN6P” value in the series with glucosamine-6-phosphate [2] turned out to be 0.00218 ± 0.00013 s⁻¹. The “self-cleavage kobs at 10000 uM GlcN6P” value in the series with glucosamine-6-phosphate [4] was found to be 0.00313 ± 0.00019 s⁻¹.

Regarding A6C G13C G62C, in the series with glucosamine-6-phosphate [1], the “self-cleavage kobs at 640 uM GlcN6P” value is below 1e-05 s⁻¹.

Turning to G7U G41C C58A, the “self-cleavage kobs at 640 uM GlcN6P” value with glucosamine-6-phosphate [1] was below 1e-05 s⁻¹. Further, the “self-cleavage kobs at 2500 uM GlcN6P” value with glucosamine-6-phosphate [2] was below 1e-05 s⁻¹.
